# Measured values from ChEMBL document CHEMBL4888484, “Replenishing the malaria drug discovery pipeline: Screening and hit evaluation of the MMV Hit Generation Library 1 (HGL1) against asexual blood stage Plasmodium falciparum ,using a nano luciferase reporter read-out” (2022).
# In all, about 150,000 compounds went through this assay and about 540 (0.36%) showed an effect of 50% or more. Some of the results follow.
# Test system: Plasmodium falciparum
# Assay: Primary screen in NF54 nanoGlo assay, in single point, at 2uM, 72h; a lower Z score goes with more inhibition
# Type: functional, Erythrocyte
# Conditions: timepoint 72 hour
Compound,% Inhibition [%],Z score
COc1ccc(NC(=O)c2cn3c(n2)CCCC3)c(OC)c1,-5,0.76
O=C(NC1CCCCC1)[C@H]1CC(=O)N(Cc2cccc(Br)c2)C1,11,-1.33
Cc1noc(CN2CCN([C@H]3CCN(Cc4cccc(F)c4F)C3)C2=O)n1,4,-0.67
Cc1nc2c(c(=O)n1C)CN([C@@H](C)C(=O)NCC(C)C)C2,-8,0.99
CC(C)(C)C(=O)NCCC(=O)OC1(C#N)CCC1,-10,1.41
CN(C)C(=O)OCCN(c1ccc(Br)cc1Cl)S(C)(=O)=O,-11,1.27
CC(=O)Nc1ccc(-c2nc(-c3cccnn3)no2)c(C)c1,-22,2.61
Cc1cc(C(C)C)nc(N2CCN(C(=O)NC3C4CCOC4C34CCC4)CC2)n1 (stereo not drawn),1,-0.2
CCOC(=O)N(C)C1CCN([C@@H](C)c2nc3ccccc3o2)CC1,-7,0.89
Cc1noc(C)c1CC(=O)N1CC[C@H](Oc2cccc(F)c2)C1,1,-0.18
Cc1cccc(OCC(=O)N2CCC[C@H](N(CCCN3CCCC3)C(=O)C(C)C)C2)c1,-6,0.89
CCN1C(=O)COc2ccc(-c3noc([C@H]4CC(=O)N(c5ccc(C)cc5)C4)n3)cc21,2,-0.22
CCN(CC(F)F)C(=O)c1ncccc1Br,-4,0.35
COc1ccc(Cl)cc1C(=O)N1CCCN(c2cc(-c3ccccc3)n[nH]2)CC1,-5,0.53
CC(C)C[C@@H]1NC(=O)[C@@H](c2ccc(O)cc2)NC1=O,-11,1.77
CCn1nc(-c2ccc(C(=O)N(C)Cc3cnn(C)c3)cc2)nc1N(C)C,-6,0.52
COc1ccc(NC(=O)CN2CCC[C@H](c3ncc[nH]3)C2)cc1,8,-1.46
COc1ccc(Cl)cc1CON=C(N)c1cnn(C)c1,13,-2.33
Cn1nccc1-c1cncc(CNC(=O)c2ccncc2F)c1,8,-0.99
O=C(CN1CCN(Cc2ccccc2)CC1)N1c2ccccc2CCc2ccccc21,-7,0.65
COc1nccnc1N1CCNC(=O)C1,-9,1.61
O=S(=O)(Nc1cccc(-c2nc3ccccc3s2)c1)c1ccc(F)c(Cl)c1,-11,1.42

Compound,% Inhibition [%],Z score
O=C(Nc1ncc(C2(O)CCCCC2)s1)c1cccc2nccn12,-6,0.9
CCC(CNC1CCC(=O)NC12CCC2)c1ccccc1 (stereo not drawn),-3,0.69
COC[C@](C)(CCO)NC(=O)Nc1ccc(F)c(Br)c1,-6,0.5
Cc1nn(C)c(Oc2cccnc2)c1CN1CCN(c2cc(F)ccc2F)CC1,-9,1.58
CC1CC(CNC(=O)NC(C)C2CC2)CCO1 (stereo not drawn),18,-2.25
CC(C)C[C@H]1CN(C)CCN1C(=O)c1coc(-c2ccccn2)n1,-3,0.3
O=C(Nc1ccc(Cl)cc1)Nc1ccc(-c2nc(-c3ccccc3)co2)cc1,-9,1.25
CCN(Cc1cnn(C)c1)C(=O)c1cc(COc2cc(C)c(Cl)c(C)c2)on1,2,-0.27
CN(C(=O)c1cccnc1OCc1ccccc1F)c1nncs1,2,-0.4
CC(C)(C)n1nnc(C(=O)N2CCC[C@H]2C(F)(F)F)n1,-1,0.13
C=CCNC(=O)[C@@H]1C(=O)Nc2nc3ccccc3nc21,-7,1.05
CN(C)c1ncccc1CNC[C@H]1CCOC1,-18,2.55
CCNC(=O)[C@H](C)NC(=O)c1cccc(F)c1,-2,0.19
COC[C@H](C)N1CCN(S(C)(=O)=O)CC1,-2,0.27
O=C(c1cn(C2CN(C(=O)[C@@H]3CCCO3)C2)nn1)N1CCOCC1,-9,1.65
COc1ccccc1CN(C(=O)NCCc1nc(C2CC2)no1)C1CC1,-14,2.01
Cc1cccc(NC(=O)c2nn(-c3ccc(F)cc3)c3ccccc3c2=O)c1,-1,0.12
CCNC(=O)N(CCN1CCOCC1)Cc1cc(Cl)ccc1OCc1nc(CO)cs1,14,-1.37
O=C(c1cc(C(=O)N2CC[C@@H]3CCC[C@@H]32)c[nH]1)N1CCCC1,-21,2.15
CCn1cc(CNC(=O)Nc2c(C)c(-c3ccccc3)nn2C)c(C)n1,-7,1.25
O=C(Cc1cccs1)N[C@H]1CCCCNC1=O,2,-0.44
O=C(NC1CC1)N1CCN(c2ncc(Br)cn2)CC1,-14,1.25
